In assay [1] the target is T1, EF-Tu phosphorylated at T382 (pEF-Tu_(T382)), Escherichia coli (Escherichia coli, UniProt P0CE47, phosphothreonine at 382 (pT382)).
T1 construct: Same construct as m1, modified by Doc; Two of the deposited entries (5MI3, 5OPD, 5MI8, 5MI9) hold this molecule with GDP or GTP; also called phosphorylated EF-Tu
The assay is described as follows: ITC; EF-Ts titrated into EF-Tu or pEF-Tu_(T382) at 25°C; nucleotide-free EF-Tu; 50 mM Hepes pH 7.4, 40 mM NH4Cl, 2 mM MgCl2, 1 mM TCEP; 5-20 uM in the cell, 100-500 uM in the syringe. As to conditions: both partners purified.

Assay [2] addresses T2, Translation elongation factor Tu (EF-Tu), Escherichia coli, nonphosphorylated (Escherichia coli, UniProt P0CE47).
T2 construct: Elongation factor Tu, E. coli; also called nonphosphorylated EF-Tu; wild-type EF-Tu; source: His-tagged, expressed in cells grown in LB with IPTG induction, purified (HisTrap, SEC); made nucleotide-free and dialyzed before ITC
Described as above. As to conditions: both partners purified.

B1: Elongation factor Ts (EF-Ts) (natural protein)
chain: not shown
notes: Elongation factor Ts, the GDP/GTP nucleotide exchanger specific for EF-Tu; source: produced and purified in the same way as His-tagged EF-Tu (HisTrap, SEC)
As to B1, the Kd in assay [1] is 0.81 nM; in assay [2], 1.2 nM.

The term Kd denotes a measure of binding affinity in units of concentration.

These data come from article PMC5851678, “Phosphorylation decelerates conformational dynamics in bacterial translation elongation factors” (Science Advances, 2018).
